From the supplement of paper PMC9433436 come the findings set out here.

± gives the standard deviation of the averaged measurements. Over roughly 4,100 sequences, “relative kcat/Km (krel) vs genomic leader AAAGAU” has its median near 1.7; the highest 2% begin near 6.5. The entries are a selection whose mix differs from that of the whole data set.

For this experiment, the target named is T1, E. coli RNase P holoenzyme (M1 P RNA + rnpA protein) (UniProt P0A7Y8).
T1 sequence: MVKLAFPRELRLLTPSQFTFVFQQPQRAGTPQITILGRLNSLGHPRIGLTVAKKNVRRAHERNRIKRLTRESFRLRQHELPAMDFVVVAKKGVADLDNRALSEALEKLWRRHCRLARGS
Kind of experiment: relative kcat/Km (krel) vs genomic leader AAAGAU (relative (reference leader = 1)); higher = faster RNase P cleavage. As to the method:
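HTS-Kin: a pool of ptRNA-Met (21C construct) with all 4096 combinations of 5' leader nucleotides N(-6) to N(-1) was processed in vitro by E. coli RNase P (P RNA + rnpA/C5 protein) under multiple-turnover conditions at 37 C, pH 8, 17.5 mM MgCl2. Residual substrate was Illumina-sequenced at several fractions reacted, and relative kcat/Km (krel) was computed by internal competition kinetics, calibrated to the genomic leader (AAAGAU = 1). The listed hexamer is the varied N(-6)..N(-1) leader (DNA letters), and it sits between a fixed 5' stem-loop flank (GCAUGCACGAAAGUGCGUGCUAUGAA) and the mature tRNA-Met starting GGCUACGUAGCUCAGUUGG. Two technical replicates are averaged.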

Where [1] appears, read: fraction of substrate reacted: ~9-10% (9.79% repeat 1, 9.1% repeat 2).
Setting [2] is: fraction of substrate reacted: ~13-16% (15.68% repeat 1, 13.17% repeat 2).
[3] abbreviates: fraction of substrate reacted: ~26-29% (28.66% repeat 1, 26.4% repeat 2).

Regarding TAGTGC, the “relative kcat/Km” value runs as follows: under setting [1], 1.81 ± 1.3; under setting [2], 1.58 ± 0.22; under setting [3], 2.06 ± 0.56.

For GTCGAG, the “relative kcat/Km” value is, setting by setting: under setting [1], 2.05 ± 1.5; under setting [2], 2.123 ± 0.001; under setting [3], 4.03 ± 1.6.

Consider AATATA, for which the “relative kcat/Km” value under setting [1] is 2.2 ± 1.2, the “relative kcat/Km” value under setting [2] was 1.95 ± 0.23 and the “relative kcat/Km” value under setting [3] stood at 2.59 ± 1.1.

For the sequence GGGGCT, under setting [3], the “relative kcat/Km” value worked out at 1.09 ± 0.83.

As to TCGAAT, the “relative kcat/Km” value is, setting by setting: under setting [1], 2.64 ± 1.3; under setting [2], 2.89 ± 0.13; under setting [3], 4.3 ± 1.4.

Consider GAGGCC, for which the “relative kcat/Km” value under setting [1] was found to be 0.984 ± 0.052, the “relative kcat/Km” value under setting [2] stood at 0.761 ± 0.51 and the “relative kcat/Km” value under setting [3] was determined as 0.613 ± 0.026.

For CCGGAA, the “relative kcat/Km” value is, setting by setting: under setting [1], 1.7 ± 0.8; under setting [2], 0.925 ± 0.78; under setting [3], 1.27 ± 0.073.

As to CTAGGA, the “relative kcat/Km” value came out at 1.07 ± 0.76 under setting [1], 1.41 ± 0.22 under setting [2] and 0.67 ± 0.23 under setting [3].

Regarding GGCTTA, the “relative kcat/Km” value came to 1.58 ± 0.71 under setting [1], 1.39 ± 0.29 under setting [2] and 1.79 ± 0.95 under setting [3].

For CTAGGT, under setting [3], the “relative kcat/Km” value came to 1.39 ± 0.93.

For ACCAAC, the “relative kcat/Km” value under setting [2] stood at 2.14 ± 1.3 and the “relative kcat/Km” value under setting [3] is 3.18 ± 0.23.

For the sequence TATACT, the “relative kcat/Km” value reads like this: under setting [1], 2.15 ± 0.77; under setting [2], 2.03 ± 0.18; under setting [3], 3.12 ± 1.6.

With TAGCTA, the “relative kcat/Km” value by setting is: under setting [1], 1.04 ± 0.16; under setting [2], 1.25 ± 0.24; under setting [3], 2.18 ± 0.59.

As for TTAGGC, the “relative kcat/Km” value under setting [3] is 1.86 ± 1.6.

With GTGCCC, the “relative kcat/Km” value is, setting by setting: under setting [1], 1.01 ± 0.23; under setting [2], 0.583 ± 0.44; under setting [3], 1.13 ± 0.088.

Take GTTTCC: the “relative kcat/Km” value under setting [1] came to 2.8 ± 0.93, the “relative kcat/Km” value under setting [2] came to 2.65 ± 0.76 and the “relative kcat/Km” value under setting [3] was found to be 3.04 ± 1.2.

In the case of CGTGAT, the “relative kcat/Km” value is, setting by setting: under setting [1], 1.39 ± 0.58; under setting [2], 1.75 ± 0.53; under setting [3], 1.57 ± 0.94.

For the sequence TTTGTA, the “relative kcat/Km” value reads like this: under setting [1], 1.62 ± 0.57; under setting [2], 1.66 ± 0.31; under setting [3], 2.37 ± 0.96.

With AGGTCC, the “relative kcat/Km” value under setting [3] worked out at 0.52 ± 0.25.

In the case of CGGAGG, the “relative kcat/Km” value under setting [1] was 0.395 ± 0.29.

As to TCTATA, the “relative kcat/Km” value under setting [1] is 2.09 ± 1.5, the “relative kcat/Km” value under setting [2] amounted to 2.09 ± 0.89 and the “relative kcat/Km” value under setting [3] was found to be 3.24 ± 1.4.

For GCATCT, the “relative kcat/Km” value was found to be 1.43 ± 0.64 under setting [1], 1.64 ± 0.52 under setting [2] and 2.5 ± 0.57 under setting [3].

Take CATTGG: the “relative kcat/Km” value under setting [2] turned out to be 0.554 ± 0.12 and the “relative kcat/Km” value under setting [3] was determined as 0.737 ± 0.17.

For the sequence TGTTGG, the “relative kcat/Km” value was determined as 0.486 ± 0.11 under setting [1] and 0.805 ± 0.36 under setting [3].

Consider TTATCG, for which the “relative kcat/Km” value by setting is: under setting [2], 0.966 ± 0.31; under setting [3], 1.8 ± 0.48.

As for TATTGC, the “relative kcat/Km” value runs as follows: under setting [1], 3.74 ± 1.7; under setting [2], 4.4 ± 0.4; under setting [3], 6.68 ± 3.2.

As for TTAGTG, the “relative kcat/Km” value under setting [3] is 0.934 ± 0.09.

Consider CGATAG, for which the “relative kcat/Km” value was found to be 2.33 ± 1 under setting [1], 1.85 ± 0.46 under setting [2] and 3.17 ± 0.85 under setting [3].

In the case of CTCAAA, the “relative kcat/Km” value came out at 4.31 ± 1.6 under setting [1], 4.92 ± 1.4 under setting [2] and 8.02 ± 3.1 under setting [3].

In the case of TGCGAT, the “relative kcat/Km” value under setting [1] came to 0.465 ± 0.018, the “relative kcat/Km” value under setting [2] is 0.782 ± 0.058 and the “relative kcat/Km” value under setting [3] worked out at 1.34 ± 0.61.

Regarding CCTCTC, the “relative kcat/Km” value turned out to be 1.81 ± 0.67 under setting [1], 2.08 ± 0.64 under setting [2] and 2.5 ± 0.35 under setting [3].

As for TGGTGC, the “relative kcat/Km” value under setting [1] turned out to be 0.735 ± 0.49, the “relative kcat/Km” value under setting [2] was found to be 0.913 ± 0.26 and the “relative kcat/Km” value under setting [3] was found to be 0.832 ± 0.33.

Regarding CTCGTG, the “relative kcat/Km” value by setting is: under setting [2], 0.177 ± 0.037; under setting [3], 1.17 ± 0.98.

Consider TGGGCT, for which the “relative kcat/Km” value under setting [3] is 0.65 ± 0.32.

For GAGATT, the “relative kcat/Km” value amounted to 1.75 ± 0.29 under setting [1], 1.64 ± 0.43 under setting [2] and 2.6 ± 1.1 under setting [3].

In the case of GAATGT, the “relative kcat/Km” value under setting [1] worked out at 0.295 ± 0.29.

With ATAGTT, the “relative kcat/Km” value under setting [1] turned out to be 0.831 ± 0.62, the “relative kcat/Km” value under setting [2] worked out at 1.42 ± 0.72 and the “relative kcat/Km” value under setting [3] came out at 1.26 ± 0.59.

Regarding GCGTCT, the “relative kcat/Km” value is, setting by setting: under setting [1], 1.59 ± 0.36; under setting [2], 1.55 ± 1.1; under setting [3], 2.35 ± 0.78.

Consider AAATAA, for which the “relative kcat/Km” value under setting [1] was determined as 2.68 ± 1.5, the “relative kcat/Km” value under setting [2] came out at 2.92 ± 0.98 and the “relative kcat/Km” value under setting [3] was 3.44 ± 1.2.

For the sequence TGACAG, the “relative kcat/Km” value is, setting by setting: under setting [2], 0.756 ± 0.32; under setting [3], 2.45 ± 0.62.

Consider GGTGAC, for which the “relative kcat/Km” value under setting [1] is 0.874 ± 0.18, the “relative kcat/Km” value under setting [2] is 1.12 ± 0.18 and the “relative kcat/Km” value under setting [3] worked out at 1.82 ± 0.48.

GGTCCG: the “relative kcat/Km” value reads like this: under setting [2], 0.169 ± 0.08; under setting [3], 0.64 ± 0.47.

For GGGATA, the “relative kcat/Km” value under setting [2] is 0.415 ± 0.34.

With GAGTAC, the “relative kcat/Km” value runs as follows: under setting [1], 3.52 ± 1.9; under setting [2], 3.52 ± 0.29; under setting [3], 5.26 ± 1.7.

For the sequence TTGAAT, the “relative kcat/Km” value runs as follows: under setting [1], 2.74 ± 0.89; under setting [2], 3.27 ± 0.73; under setting [3], 4.03 ± 1.6.

In the case of ATACGA, the “relative kcat/Km” value reads like this: under setting [1], 2.68 ± 0.89; under setting [2], 2.72 ± 0.77; under setting [3], 3.71 ± 1.4.

As to AAGCAC, the “relative kcat/Km” value is, setting by setting: under setting [1], 2.14 ± 1.2; under setting [2], 1.53 ± 0.4; under setting [3], 3.12 ± 1.2.

For the sequence ATTGCG, under setting [3], the “relative kcat/Km” value is 0.619 ± 0.17.

As to TTTTTC, the “relative kcat/Km” value runs as follows: under setting [1], 2.88 ± 1.2; under setting [2], 2.8 ± 0.044; under setting [3], 3.84 ± 1.1.

As to TACTAA, the “relative kcat/Km” value was 5.23 ± 2.7 under setting [1], 6.48 ± 0.54 under setting [2] and 8.92 ± 3.4 under setting [3].

Consider CGGACG, for which the “relative kcat/Km” value is, setting by setting: under setting [1], 1.05 ± 1.1; under setting [3], 0.906 ± 0.41.

For GCAGAA, the “relative kcat/Km” value is 1.37 ± 1.1 under setting [2] and 1.61 ± 0.17 under setting [3].

Take ATATTC: the “relative kcat/Km” value reads like this: under setting [1], 2.33 ± 1; under setting [2], 2.43 ± 0.22; under setting [3], 3.4 ± 1.6.

On to CATACG, for which, under setting [3], the “relative kcat/Km” value is 1.46 ± 0.63.

Turning to GACTTT, the “relative kcat/Km” value runs as follows: under setting [1], 2.81 ± 0.56; under setting [2], 4.5 ± 0.87; under setting [3], 6.45 ± 3.2.

Turning to CTAGCC, the “relative kcat/Km” value is 0.965 ± 0.36 under setting [1], 1.49 ± 0.74 under setting [2] and 1.28 ± 0.23 under setting [3].

Consider GTCACC, for which the “relative kcat/Km” value is, setting by setting: under setting [1], 3.43 ± 0.98; under setting [2], 4.83 ± 0.44.

For AATTTC, the “relative kcat/Km” value turned out to be 2.12 ± 0.34 under setting [1], 2.27 ± 0.84 under setting [2] and 2.43 ± 0.8 under setting [3].

As to GGGAAA, the “relative kcat/Km” value amounted to 2.05 ± 1.2 under setting [1], 1.63 ± 0.29 under setting [2] and 2.12 ± 0.69 under setting [3].
